Test results reported in article PMC10957897, “An evolutionary mechanism to assimilate new nutrient sensors into the mTORC1 pathway” (Nature Communications, 2024).
No constants are given. Whether binding was seen depends on the method and setting. In cells and extracts the contact can be indirect. Some results given as binding are weak or reduced against the parent protein; the word gives no strength. For part of these data: Sequences can lack the tags named with a protein.

Chains of the proteins cited; added tags and fusions are not shown. Lines headed by an entry give the natural chain unless they say otherwise; changes in a name come on top.
UniProt Q9W0E3: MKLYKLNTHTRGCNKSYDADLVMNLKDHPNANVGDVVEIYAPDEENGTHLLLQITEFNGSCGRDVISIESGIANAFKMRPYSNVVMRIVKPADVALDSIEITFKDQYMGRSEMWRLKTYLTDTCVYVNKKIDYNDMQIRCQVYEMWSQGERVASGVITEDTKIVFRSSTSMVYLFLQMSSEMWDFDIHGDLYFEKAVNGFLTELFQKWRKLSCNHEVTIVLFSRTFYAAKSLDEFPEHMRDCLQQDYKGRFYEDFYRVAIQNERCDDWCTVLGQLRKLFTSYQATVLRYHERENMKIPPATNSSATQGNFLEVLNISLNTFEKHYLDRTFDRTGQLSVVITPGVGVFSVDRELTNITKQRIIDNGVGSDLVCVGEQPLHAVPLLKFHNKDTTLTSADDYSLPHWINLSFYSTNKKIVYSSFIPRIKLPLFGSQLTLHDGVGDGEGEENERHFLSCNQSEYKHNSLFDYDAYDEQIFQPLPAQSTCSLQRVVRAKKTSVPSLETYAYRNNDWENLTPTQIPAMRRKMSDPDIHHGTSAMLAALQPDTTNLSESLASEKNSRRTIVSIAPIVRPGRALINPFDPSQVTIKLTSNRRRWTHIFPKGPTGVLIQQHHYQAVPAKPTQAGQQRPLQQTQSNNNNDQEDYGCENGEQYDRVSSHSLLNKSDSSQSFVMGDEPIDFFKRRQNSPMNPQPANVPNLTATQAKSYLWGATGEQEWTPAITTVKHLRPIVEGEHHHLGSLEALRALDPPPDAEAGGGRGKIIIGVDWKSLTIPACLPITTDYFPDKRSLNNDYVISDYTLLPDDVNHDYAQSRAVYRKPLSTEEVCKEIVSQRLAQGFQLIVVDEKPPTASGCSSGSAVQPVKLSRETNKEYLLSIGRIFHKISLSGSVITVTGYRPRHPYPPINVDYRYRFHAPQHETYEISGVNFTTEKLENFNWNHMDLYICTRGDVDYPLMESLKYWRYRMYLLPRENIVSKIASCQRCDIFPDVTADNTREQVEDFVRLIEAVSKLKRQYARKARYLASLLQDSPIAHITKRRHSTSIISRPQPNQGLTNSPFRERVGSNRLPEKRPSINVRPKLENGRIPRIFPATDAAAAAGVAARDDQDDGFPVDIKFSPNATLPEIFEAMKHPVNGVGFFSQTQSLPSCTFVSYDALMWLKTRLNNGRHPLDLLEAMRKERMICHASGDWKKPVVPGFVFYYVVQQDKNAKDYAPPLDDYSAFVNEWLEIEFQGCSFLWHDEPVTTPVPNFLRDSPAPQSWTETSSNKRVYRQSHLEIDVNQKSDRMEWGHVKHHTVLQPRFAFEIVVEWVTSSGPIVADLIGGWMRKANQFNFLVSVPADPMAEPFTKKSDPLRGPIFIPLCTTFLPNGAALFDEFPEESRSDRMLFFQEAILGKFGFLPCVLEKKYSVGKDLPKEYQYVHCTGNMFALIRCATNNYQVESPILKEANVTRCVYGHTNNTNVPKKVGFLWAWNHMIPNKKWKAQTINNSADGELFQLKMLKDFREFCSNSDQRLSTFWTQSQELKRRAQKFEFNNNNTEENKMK
UniProt Q9VKK2: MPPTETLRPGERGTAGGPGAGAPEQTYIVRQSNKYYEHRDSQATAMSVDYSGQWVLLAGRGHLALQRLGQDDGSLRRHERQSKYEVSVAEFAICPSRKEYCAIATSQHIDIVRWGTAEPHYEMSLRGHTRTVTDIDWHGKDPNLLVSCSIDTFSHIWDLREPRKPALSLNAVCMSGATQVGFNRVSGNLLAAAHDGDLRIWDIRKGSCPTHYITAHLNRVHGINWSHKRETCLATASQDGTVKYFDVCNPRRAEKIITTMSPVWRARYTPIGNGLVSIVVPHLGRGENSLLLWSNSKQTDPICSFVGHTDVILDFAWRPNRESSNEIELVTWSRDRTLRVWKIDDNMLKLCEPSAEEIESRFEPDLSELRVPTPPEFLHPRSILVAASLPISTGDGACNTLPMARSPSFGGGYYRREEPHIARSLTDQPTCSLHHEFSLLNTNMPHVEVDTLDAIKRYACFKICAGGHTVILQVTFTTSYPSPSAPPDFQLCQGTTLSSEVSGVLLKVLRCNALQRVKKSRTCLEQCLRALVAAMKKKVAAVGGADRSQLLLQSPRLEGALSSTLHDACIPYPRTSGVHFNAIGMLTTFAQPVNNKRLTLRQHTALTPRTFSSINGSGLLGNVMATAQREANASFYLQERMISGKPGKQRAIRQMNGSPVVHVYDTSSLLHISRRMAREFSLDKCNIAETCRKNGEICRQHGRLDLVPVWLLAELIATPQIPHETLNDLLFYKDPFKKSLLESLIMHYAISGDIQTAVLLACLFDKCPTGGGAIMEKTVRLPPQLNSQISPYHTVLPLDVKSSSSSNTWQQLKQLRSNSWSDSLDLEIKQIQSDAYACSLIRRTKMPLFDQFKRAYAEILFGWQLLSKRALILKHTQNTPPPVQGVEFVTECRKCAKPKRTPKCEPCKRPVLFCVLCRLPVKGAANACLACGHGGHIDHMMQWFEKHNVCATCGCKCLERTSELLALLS

What was measured:
[1] = target: T1, HA-Unmet, transiently expressed in HEK-293T cells (D. melanogaster) (UniProt Q9I7X6); assay: co-IP; anti-HA immunoprecipitates from HEK-293T cells co-transfected with the sensor and the GATOR complexes; Triton lysis buffer, washes with 300 mM NaCl
T1 sequence: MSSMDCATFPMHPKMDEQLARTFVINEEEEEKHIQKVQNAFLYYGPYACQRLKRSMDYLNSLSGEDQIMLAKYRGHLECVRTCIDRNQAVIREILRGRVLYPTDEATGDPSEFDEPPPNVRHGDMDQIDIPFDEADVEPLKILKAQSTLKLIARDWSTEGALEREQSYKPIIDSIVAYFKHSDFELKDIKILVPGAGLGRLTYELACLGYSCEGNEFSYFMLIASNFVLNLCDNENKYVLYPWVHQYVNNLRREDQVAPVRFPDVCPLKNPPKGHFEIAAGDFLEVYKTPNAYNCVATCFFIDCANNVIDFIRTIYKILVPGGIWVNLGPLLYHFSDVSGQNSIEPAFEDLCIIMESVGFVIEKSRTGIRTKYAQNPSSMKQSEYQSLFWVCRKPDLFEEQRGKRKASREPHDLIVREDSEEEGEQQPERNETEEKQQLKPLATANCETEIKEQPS

[2] = target: T2, dSestrin, transiently expressed in HEK-293T cells (D. melanogaster) (UniProt Q9W1K5); assay: as above
T2 sequence: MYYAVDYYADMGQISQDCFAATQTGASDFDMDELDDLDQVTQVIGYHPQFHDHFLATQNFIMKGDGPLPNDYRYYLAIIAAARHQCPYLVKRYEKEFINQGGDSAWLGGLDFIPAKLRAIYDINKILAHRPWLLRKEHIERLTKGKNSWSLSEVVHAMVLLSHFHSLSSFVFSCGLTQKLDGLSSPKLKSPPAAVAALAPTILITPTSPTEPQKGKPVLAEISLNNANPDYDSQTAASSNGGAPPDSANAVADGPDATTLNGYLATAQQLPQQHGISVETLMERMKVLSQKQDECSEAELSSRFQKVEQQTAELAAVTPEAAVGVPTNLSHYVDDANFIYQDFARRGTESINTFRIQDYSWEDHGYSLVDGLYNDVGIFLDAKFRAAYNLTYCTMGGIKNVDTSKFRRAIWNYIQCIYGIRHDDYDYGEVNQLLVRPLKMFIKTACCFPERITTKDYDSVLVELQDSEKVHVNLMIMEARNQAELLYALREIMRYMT

[3] = target: T3, carnosine N-methyltransferase 1 (CARNMT1), human, transiently expressed in HEK-293T cells (human) (UniProt Q8N4J0); assay: as above
T3 sequence: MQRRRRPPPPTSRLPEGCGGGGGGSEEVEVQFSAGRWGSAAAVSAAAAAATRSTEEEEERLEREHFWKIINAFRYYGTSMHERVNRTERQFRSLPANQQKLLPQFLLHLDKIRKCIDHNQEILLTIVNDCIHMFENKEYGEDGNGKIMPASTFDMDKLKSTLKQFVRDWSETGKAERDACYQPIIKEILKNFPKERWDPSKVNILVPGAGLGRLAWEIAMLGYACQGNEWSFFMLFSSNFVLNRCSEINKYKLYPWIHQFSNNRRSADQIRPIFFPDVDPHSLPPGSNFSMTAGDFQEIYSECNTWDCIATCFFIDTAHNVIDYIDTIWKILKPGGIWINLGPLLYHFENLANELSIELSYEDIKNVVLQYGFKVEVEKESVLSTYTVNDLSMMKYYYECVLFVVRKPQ

[4] = target: T4, HA-tagged Unmet, transiently expressed in S2R+ cells (D. melanogaster) (UniProt Q9I7X6); assay: co-IP; anti-HA immunoprecipitates from S2R+ cells with endogenous FLAG knock-in tags at Iml1 or dWDR59, transfected with HA-tagged cDNAs in MT vectors, 48 h 75 uM CuSO4; washes with 300 mM NaCl; methionine or leucine withdrawal in Supplementary Fig. 2b
T4 sequence: T1 sequence

| Substance | binding [1] | binding [2] | binding [3] | binding [4] |
| --- | --- | --- | --- | --- |
| dGATOR1 complex, transiently expressed in HEK-293T cells (from UniProt Q9W0E3 1-1544; Q9VXA0 1-412; Q9VUB4 1-610) | no binding | no binding |  |  |
| dGATOR2 complex, transiently expressed in HEK-293T cells (from UniProt Q9VKK2 1-969; Q9XZ25 1-776; Q9VQ89 1-867; Q7K2X8 1-354; Q9V3J4 1-356) | binds | binds | binds |  |
| endogenous dGATOR2 complex of S2R+ cells (FLAG knock-in at dWDR59) (from UniProt Q9VKK2 1-969; Q9XZ25 1-776; Q9VQ89 1-867; Q7K2X8 1-354; Q9V3J4 1-356) |  |  |  | binds |
